# Reference: publication PMC4336329 (PLoS ONE, 2015)
# Screen size: about 310,000 compounds; about 14,000 (4.5%) showed an effect of 50% or more. The effect is printed as a negative number. The list shows a part of the results. Where a SMILES comes first, the peptide text is derived from it. [ ]: non-standard residue; d: D form. ξ: configuration not given here. ξF = NC(Cc1ccccc1)C(=O)O
# Biological target: human ether-à-go-go-related gene (hERG) potassium channel (human, UniProt Q12809)
# Assay: primary screen, population patch clamp on CHO cells stably expressing hERG
# 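Note: peak tail current of the secondary pulse compared with the same well before compound.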
# Sequence of human ether-à-go-go-related gene (hERG) potassium channel (Q12809 whole entry, looked up): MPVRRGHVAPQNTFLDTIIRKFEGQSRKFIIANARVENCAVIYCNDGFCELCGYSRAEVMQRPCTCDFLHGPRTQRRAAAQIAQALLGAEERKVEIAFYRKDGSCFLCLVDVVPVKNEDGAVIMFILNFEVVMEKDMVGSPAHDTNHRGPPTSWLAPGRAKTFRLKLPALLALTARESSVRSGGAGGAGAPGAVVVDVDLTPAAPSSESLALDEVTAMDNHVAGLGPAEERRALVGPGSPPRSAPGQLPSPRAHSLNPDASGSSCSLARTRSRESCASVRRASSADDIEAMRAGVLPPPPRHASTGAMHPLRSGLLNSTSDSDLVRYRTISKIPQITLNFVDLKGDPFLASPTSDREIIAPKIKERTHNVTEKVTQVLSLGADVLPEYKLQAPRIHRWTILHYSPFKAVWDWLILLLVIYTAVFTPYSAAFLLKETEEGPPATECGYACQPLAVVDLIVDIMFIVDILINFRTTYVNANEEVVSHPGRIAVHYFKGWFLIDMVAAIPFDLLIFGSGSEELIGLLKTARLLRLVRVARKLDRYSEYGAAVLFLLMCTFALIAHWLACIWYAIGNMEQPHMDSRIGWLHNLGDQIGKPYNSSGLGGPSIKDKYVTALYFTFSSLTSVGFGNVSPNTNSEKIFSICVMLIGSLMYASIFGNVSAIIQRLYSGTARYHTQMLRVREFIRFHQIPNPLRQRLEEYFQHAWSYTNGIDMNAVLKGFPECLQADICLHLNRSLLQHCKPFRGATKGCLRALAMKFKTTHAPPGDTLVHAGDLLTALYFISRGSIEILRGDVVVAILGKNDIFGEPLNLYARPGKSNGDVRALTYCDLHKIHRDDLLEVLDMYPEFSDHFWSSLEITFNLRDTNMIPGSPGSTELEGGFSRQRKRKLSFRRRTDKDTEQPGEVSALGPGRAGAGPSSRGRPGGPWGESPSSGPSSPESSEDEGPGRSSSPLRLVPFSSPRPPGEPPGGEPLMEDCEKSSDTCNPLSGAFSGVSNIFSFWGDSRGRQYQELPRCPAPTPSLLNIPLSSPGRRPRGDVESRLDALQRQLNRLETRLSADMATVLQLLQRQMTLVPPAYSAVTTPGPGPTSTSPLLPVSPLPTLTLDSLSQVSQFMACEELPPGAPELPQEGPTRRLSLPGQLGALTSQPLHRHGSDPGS
row,SMILES,"hERG current change (%, negative = inhibition) at 10uM"
1,COc1ccccc1C(=O)NCC(=O)NCC1(N2CCCCC2)CCCCC1,0.491%
2,COc1nc(-c2ccccc2)c2cc(Br)ccc2n1,-0.224%
3,O=C(Nc1nc(COc2ccccc2)cs1)c1ccccc1F,24.9%
4,COC(=O)c1ccc(/C=N/Nc2nc(C)c(C)s2)cc1,3.14%
5,COc1ccc(C(CNC(=O)C2CC(=O)N(Cc3ccccc3)C2)N2CCCC2)cc1 (stereo not drawn),7.72%
6,O=C(NCc1ccncc1)C(=O)Nc1nccs1,9.87%
7,CC(C)Cn1c(N)cc(=O)n(C)c1=O,18.2%
8,CCOC(=O)N1CCN(S(=O)(=O)c2ccc(C(=O)Nc3nnc(CSC)o3)cc2)CC1,-12.7%
9,O=c1cc(C(F)(F)F)nc(-c2ccccc2OC(F)(F)F)[nH]1,4.02%
10,COc1cccc(NC(=O)C(C)Oc2ccccc2)c1 (stereo not drawn),7.32%
11,COc1cc(S(=O)(=O)NCCN2CCOCC2)c(OC)cc1Cl,6.08%
12,CCOC(=O)C(Cc1ccccc1)NC(=O)CNC(C)=O (stereo not drawn) (Ac-Gly-[ξF]-OEt),-27.8%
13,Cn1cnnc1SCC(=O)Nc1ccccc1,9.96%
14,NNc1nc(-c2ccccc2)c2cc(Br)ccc2n1,0.341%
15,CC(=O)c1ccc(-c2cccs2)s1,17.7%
16,COc1cccc(OC)c1OCCN1CCN(C(c2ccccc2)c2ccccc2)CC1,-72.7%
17,Cl.O=C(C(c1ccccc1)N1CCOCC1)N1CCOCC1 (stereo not drawn),-4.56%
18,Cc1nc(CCNC(=O)c2cc(COc3ccc(F)cc3Cl)on2)sc1C,-22.4%
19,COc1ccc(CCn2c(SCC(=O)Nc3cc(C)on3)nc3ccsc3c2=O)cc1OC,1.5%

row,SMILES,"hERG current change (%, negative = inhibition) at 10uM"
1,Cc1nn(C)c(Cl)c1CN1CCN(C2CCCCC2)C(CCO)C1 (stereo not drawn),2.86%
2,COc1ccc(-n2cc(-c3ccccc3)c3c(NCCCN4CCOCC4)ncnc32)cc1,-65%
3,COc1ccc2c(c1)CCc1c(C(=O)Nc3ccc(OC)c(OC)c3)noc1-2,-1.11%
4,C=C1[C@@H](OC(C)=O)CC[C@]2(C)[C@@H]1C[C@@H]1C[C@H](OC(C)=O)C(C)=C([C@@H](OC(C)=O)[C@@H]2OC(C)=O)C1(C)C,-27.2%
5,Cn1nccc1C(=O)Oc1ccc(/C=N/NC(=O)c2ccccc2O)cc1,15.5%
6,COc1ccc(NC(=O)C(=O)NNC(=O)COc2ccc(Cl)cc2)c(OC)c1,10.5%
7,COc1ccc(CNC(=O)c2cc(C(=O)C3CC3)c[nH]2)cc1,10.2%
8,O=C(CN(Cc1ccco1)C(=O)Cn1nnc(-c2cccs2)n1)NCC1CCCO1 (stereo not drawn),6.63%
9,c1ccc(C2=Nn3c(nnc3-c3ccco3)SC2)cc1,-25.9%
10,CC(C)=C1C2C=CC1C(C(=O)Nc1cccc(C)c1)C2C(=O)O (stereo not drawn),7.56%
11,O=C(N/N=C/c1cccc(OC(=O)c2ccc([N+](=O)[O-])cc2)c1)c1cccnc1,1.99%
12,Cc1cc(C)c(NC(=O)CS(=O)CC(=O)Nc2ccc(F)cc2F)c(C)c1 (stereo not drawn),12.1%
13,NS(=O)(=O)c1ccc(CCNC(=O)CCCn2c(=O)[nH]c3ccc(Br)cc3c2=O)cc1,15.2%
14,Cc1cc(/C=N/NC(=O)C(=O)N2CCCC2)c(C)n1-c1cccc(Br)c1,-6.65%
15,COc1ccc(NC(=O)COC(=O)CCCOc2ccc(Cl)cc2Cl)cc1,4.42%
16,Cc1ccc(NC(=O)C(=O)NNC(=O)c2cccs2)cc1,13.3%
17,Cc1cc(C)n(-c2nc3ccccc3[nH]c2=O)n1,23%
18,O=C(NCCO)c1nc(NCCO)c2ccccc2n1,10.3%
19,Cc1ccc(N(C(=O)CCC(=O)Nc2cc(C)on2)C(C(=O)NC2CCCC2)c2ccccc2)cc1 (stereo not drawn),10.1%

row,SMILES,"hERG current change (%, negative = inhibition) at 10uM"
1,C/C(Cn1cnc([N+](=O)[O-])n1)=N\NC(=O)c1ccccc1O,8.06%
2,CCCCNC(=O)Nc1nc2ccc(CC)cc2s1,21.2%
3,CC(C)C(=O)NC(c1cccs1)c1cc([N+](=O)[O-])c2cccnc2c1O (stereo not drawn),31.7%
4,Cc1noc(C)c1CSCC(=O)Nc1cc(C(F)(F)F)ccc1N1CCCCC1,-17%
5,COc1ccc(C(=O)NC2CCN(S(=O)(=O)Cc3ccccc3)CC2)c(OC)c1,4.71%
6,O=C(O)/C=C/C(=O)Nc1ccc2c(c1)C(=O)c1ccccc1C2=O,-1.32%
7,C=CCn1c2ccccc2c2nnc(SCCN3CCCCC3)nc21,-46.4%
8,CCC1C2Cn3c(nc4ccccc43)C1N(C)O2 (stereo not drawn),3.25%
9,CCCCCC(=O)NN=C1CCN(Cc2ccccc2)CC1,-17.2%
10,C/C(Cc1ccccc1)=N\NC(=O)CNC(=O)Cc1ccc(Cl)cc1,-4.76%
11,CC(C)CCNC(=O)NC(=O)CSc1nnc(-c2ccccc2Br)o1,-5.73%
12,COc1ccccc1OCC(O)CN1CCN(C(=O)c2ccccc2)CC1.Cl (stereo not drawn),1.39%
13,COc1cc2c(cc1OC)C(c1cccc([N+](=O)[O-])c1)NC(=O)C2 (stereo not drawn),3.25%
14,Clc1cccc(CSc2nnc(-c3cccnc3)n2Cc2ccco2)c1,-74.3%
15,CSc1nc(C(=O)N2CCCC(C(=O)c3ccc(Cl)cc3)C2)cs1 (stereo not drawn),-18.1%
16,CN(C(=O)COc1cccc(C#N)c1)C1CCS(=O)(=O)C1 (stereo not drawn),4.86%
17,CCOC(=O)C1CCCN(C(=S)Nc2ccc(Nc3ccccc3)cc2)C1 (stereo not drawn),-8.62%
18,CCc1ccc(C(=O)/C=C/NCc2ccc(F)cc2)cc1,-4.74%
19,C[C@H](N)C(=O)N1CCC(C(=O)N[C@@H](Cc2ccccc2)C(=O)Nc2ccc(F)cc2)CC1,-5.88%
